Experimental data from the supplement of paper PMC12217912.
The list shows a part of the results. Sequences were assembled here from the parent chain. Values near 0.05 are background.

B1: TEV protease; numbered along this chain (parent)
chain: MGESLFKGPRDYNPISSSICHLTNESDGHTTSLYGIGFGPFIITNKHLFRRNNGTLVVQSLHGVFKVKDTTTLQQHLVDGRDMIIIRMPKDFPPFPQKLKFREPQREERICLVTTNFQTKSMSSMVSDTSCTFPSGDGIFWKHWIQTKDGQCGSPLVSTRDGFIVGIHSASNFTNTNNYFTSVPKNFMELLTNQEAQQWVSGWRLNADSVLWGGHKVFMVKPEEPFQPVKEATQL

Variants of: B1
Assay: raw area under fraction-flipped curve 0-4 h after induction (AUC4h, not background-subtracted), DNA-recorder readout of cleavage of the substrate (dimensionless); higher = more cleavage of the substrate by the protease variant
Conditions: temperature: 34 °C; time window: 0-4 h after rhamnose induction
Description: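 In vivo DNA recorder in E. coli TOP10(DE3) ΔrhaA at 34 °C. Each TEVp single-site mutant (parent TEVp 0) is paired with a single-site variant of the 7-mer TEVs (canonical ENLYFQ|S). The substrate sits between flexible linkers in a Bxb1-sfGFP-TEVs-SsrA fusion, so cleavage stabilises Bxb1 and speeds flipping of a recombination array, read by NGS. The value is the raw area under the fraction-flipped curve over 0-4 h after rhamnose induction (AUC4h), with ≥20 reads per time point. It is not background-subtracted; inactive controls average about 0.047.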
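Note: Bxb1 expression induced with 0.2% (w/v) L-rhamnose at OD600 near 0.5, cultures sampled hourly, flipped fraction per protease–substrate barcode pair counted by paired-end Illumina sequencing.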

Row | Variant | area with substrate ENLYDQS | area with substrate ENLYEQS | area with substrate ENLYGQS | area with substrate ENLYHQS | area with substrate ENLYIQS | area with substrate ENLYKQS | area with substrate ENLYLQS | area with substrate ENLYMQS | area with substrate ENLYNQS | area with substrate ENLYPQS | area with substrate ENLYQQS | area with substrate ENLYRQS | area with substrate ENLYSQS | area with substrate ENLYTQS | area with substrate ENLYWQS | area with substrate ENLYYQS | area with substrate ENLYVQS
1 | MGESLFKGPRDYNPISSSICHLTNESDTHTTSLYGIGFGPFIITNKHLFRRNNGTLVVQSLHGVFKVKDTTTLQQHLVDGRDMIIIRMPKDFPPFPQKLKFREPQREERICLVTTNFQTKSMSSMVSDTSCTFPSGDGIFWKHWIQTKDGQCGSPLVSTRDGFIVGIHSASNFTNTNNYFTSVPKNFMELLTNQEAQQWVSGWRLNADSVLWGGHKVFMVKPEEPFQPVKEATQL [G28T] | 0.0637 | 0.0612 | 0.0748 | 0.0657 | 0.124 | 0.0607 | 0.0815 | 0.0664 | 0.0569 | 0.0705 | 0.0581 | 0.0439 | 0.0588 | 0.0593 | 0.0653 |  | 
2 | MGESLFKGPRDYNPISSSICHLTNESDGHTTSLYGIGFGPFIITNKHLFRRNNGTYVVQSLHGVFKVKDTTTLQQHLVDGRDMIIIRMPKDFPPFPQKLKFREPQREERICLVTTNFQTKSMSSMVSDTSCTFPSGDGIFWKHWIQTKDGQCGSPLVSTRDGFIVGIHSASNFTNTNNYFTSVPKNFMELLTNQEAQQWVSGWRLNADSVLWGGHKVFMVKPEEPFQPVKEATQL [L56Y] | 0.0715 | 0.058 | 0.0646 | 0.0621 |  |  |  |  | 0.0594 |  | 0.0652 | 0.0496 | 0.053 | 0.0524 | 0.0647 |  | 
3 | MGESLFKGPRDYNPISSSICHLTNESDGHTTSLYGIGFGPFIITNKHLFRRNNGTQVVQSLHGVFKVKDTTTLQQHLVDGRDMIIIRMPKDFPPFPQKLKFREPQREERICLVTTNFQTKSMSSMVSDTSCTFPSGDGIFWKHWIQTKDGQCGSPLVSTRDGFIVGIHSASNFTNTNNYFTSVPKNFMELLTNQEAQQWVSGWRLNADSVLWGGHKVFMVKPEEPFQPVKEATQL [L56Q] | 0.0499 | 0.0416 |  |  |  | 0.0254 |  | 0.0508 | 0.0193 | 0.0314 | 0.0277 |  | 0.0456 | 0.0482 | 0.0337 |  | 
4 | MGESLFKGPRDYNPISSSICHLTNESDGHTTSLYGIGFGPFIITNKHLFRRNNGTLVVQSLHGPFKVKDTTTLQQHLVDGRDMIIIRMPKDFPPFPQKLKFREPQREERICLVTTNFQTKSMSSMVSDTSCTFPSGDGIFWKHWIQTKDGQCGSPLVSTRDGFIVGIHSASNFTNTNNYFTSVPKNFMELLTNQEAQQWVSGWRLNADSVLWGGHKVFMVKPEEPFQPVKEATQL [V64P] | 0.0568 | 0.0628 |  | 0.0735 | 0.136 |  |  | 0.0742 | 0.0431 | 0.0626 | 0.0623 | 0.0517 | 0.0616 |  | 0.0988 | 0.0683 | 
5 | MGESLFKGPRDYNPISSSICHLTNESDGHTTSLYGIGFGPFIITNKHLFRRNNGTLVVQSLHGKFKVKDTTTLQQHLVDGRDMIIIRMPKDFPPFPQKLKFREPQREERICLVTTNFQTKSMSSMVSDTSCTFPSGDGIFWKHWIQTKDGQCGSPLVSTRDGFIVGIHSASNFTNTNNYFTSVPKNFMELLTNQEAQQWVSGWRLNADSVLWGGHKVFMVKPEEPFQPVKEATQL [V64K] | 0.0556 | 0.076 | 0.0651 | 0.0623 | 0.115 | 0.0654 | 0.117 | 0.0588 | 0.0606 | 0.0776 | 0.0685 |  | 0.0769 | 0.0859 | 0.0839 | 0.054 | 
6 | MGESLFKGPRDYNPISSSICHLTNESDGHTTSLYGIGFGPFIITNKHCFRRNNGTLVVQSLHGVFKVKDTTTLQQHLVDGRDMIIIRMPKDFPPFPQKLKFREPQREERICLVTTNFQTKSMSSMVSDTSCTFPSGDGIFWKHWIQTKDGQCGSPLVSTRDGFIVGIHSASNFTNTNNYFTSVPKNFMELLTNQEAQQWVSGWRLNADSVLWGGHKVFMVKPEEPFQPVKEATQL [L48C] | 0.0599 | 0.0662 | 0.0708 | 0.0626 |  | 0.0575 | 0.0638 | 0.0661 | 0.0701 | 0.0629 | 0.0654 |  |  | 0.07 |  |  | 0.0886
7 | MGESLFKGPRDYNPISSSICHLTNESDGHTTSLYGIGFGPFIITNKHQFRRNNGTLVVQSLHGVFKVKDTTTLQQHLVDGRDMIIIRMPKDFPPFPQKLKFREPQREERICLVTTNFQTKSMSSMVSDTSCTFPSGDGIFWKHWIQTKDGQCGSPLVSTRDGFIVGIHSASNFTNTNNYFTSVPKNFMELLTNQEAQQWVSGWRLNADSVLWGGHKVFMVKPEEPFQPVKEATQL [L48Q] | 0.0619 | 0.0629 | 0.084 | 0.0525 | 0.0584 | 0.0245 |  | 0.064 | 0.0643 | 0.0597 | 0.0614 | 0.0633 | 0.0574 | 0.0598 | 0.0284 | 0.0454 | 0.0626
8 | MGESLFKGPRDYNPISSSICHLTNESDGHTTSLYGIGFGPFIITNKHNFRRNNGTLVVQSLHGVFKVKDTTTLQQHLVDGRDMIIIRMPKDFPPFPQKLKFREPQREERICLVTTNFQTKSMSSMVSDTSCTFPSGDGIFWKHWIQTKDGQCGSPLVSTRDGFIVGIHSASNFTNTNNYFTSVPKNFMELLTNQEAQQWVSGWRLNADSVLWGGHKVFMVKPEEPFQPVKEATQL [L48N] | 0.068 | 0.0653 | 0.0642 | 0.0261 |  | 0.0521 |  |  | 0.0551 | 0.053 |  | 0.0512 | 0.0635 |  | 0.056 |  | 
9 | MGESLFKGPRDYNPISSSICHLTNESDGHTTSLYGIGFGPFIIFNKHLFRRNNGTLVVQSLHGVFKVKDTTTLQQHLVDGRDMIIIRMPKDFPPFPQKLKFREPQREERICLVTTNFQTKSMSSMVSDTSCTFPSGDGIFWKHWIQTKDGQCGSPLVSTRDGFIVGIHSASNFTNTNNYFTSVPKNFMELLTNQEAQQWVSGWRLNADSVLWGGHKVFMVKPEEPFQPVKEATQL [T44F] | 0.0569 | 0.0519 | 0.051 | 0.0278 | 0.0458 | 0.0246 |  | 0.0436 | 0.0603 | 0.0396 | 0.076 |  |  |  |  |  | 0.0512
